We go through 5 molecules from article PMC6777367.

Sequences of proteins named here, by UniProt entry; tags and fusion partners are left off. A change or cut given only in a name is not applied to a line headed by its entry.
UniProt Q8NFJ9: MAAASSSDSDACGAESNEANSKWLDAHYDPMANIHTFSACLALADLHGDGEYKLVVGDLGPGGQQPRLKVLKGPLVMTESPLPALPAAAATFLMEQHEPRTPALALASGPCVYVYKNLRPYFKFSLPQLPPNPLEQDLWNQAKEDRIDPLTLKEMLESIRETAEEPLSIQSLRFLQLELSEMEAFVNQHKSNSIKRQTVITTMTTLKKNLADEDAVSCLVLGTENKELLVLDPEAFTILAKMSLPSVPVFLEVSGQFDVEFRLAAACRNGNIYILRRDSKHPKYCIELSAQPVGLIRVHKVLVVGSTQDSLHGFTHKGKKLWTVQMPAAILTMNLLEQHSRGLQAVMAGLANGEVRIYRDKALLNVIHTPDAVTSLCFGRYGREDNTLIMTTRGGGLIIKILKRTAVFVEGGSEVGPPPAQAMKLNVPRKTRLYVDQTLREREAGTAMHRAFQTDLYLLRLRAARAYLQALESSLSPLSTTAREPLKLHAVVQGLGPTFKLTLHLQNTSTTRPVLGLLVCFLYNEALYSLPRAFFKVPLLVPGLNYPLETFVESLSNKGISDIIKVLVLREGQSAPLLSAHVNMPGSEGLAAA
UniProt Q9Y366: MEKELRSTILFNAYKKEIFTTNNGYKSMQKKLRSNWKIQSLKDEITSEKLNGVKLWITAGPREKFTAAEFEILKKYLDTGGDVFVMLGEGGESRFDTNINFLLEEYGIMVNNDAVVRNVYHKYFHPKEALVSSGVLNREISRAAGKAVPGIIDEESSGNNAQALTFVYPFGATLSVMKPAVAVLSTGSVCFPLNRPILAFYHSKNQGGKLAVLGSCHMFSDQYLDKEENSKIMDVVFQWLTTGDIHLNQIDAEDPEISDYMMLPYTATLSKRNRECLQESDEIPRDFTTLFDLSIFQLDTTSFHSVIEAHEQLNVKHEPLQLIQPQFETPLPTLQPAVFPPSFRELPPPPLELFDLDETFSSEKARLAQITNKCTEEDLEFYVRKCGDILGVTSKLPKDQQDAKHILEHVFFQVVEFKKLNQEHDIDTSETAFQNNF

Experiment [1] deals with T1, EGFP-IFT38 CC construct (human) (UniProt Q96AJ1).
T1 sequence: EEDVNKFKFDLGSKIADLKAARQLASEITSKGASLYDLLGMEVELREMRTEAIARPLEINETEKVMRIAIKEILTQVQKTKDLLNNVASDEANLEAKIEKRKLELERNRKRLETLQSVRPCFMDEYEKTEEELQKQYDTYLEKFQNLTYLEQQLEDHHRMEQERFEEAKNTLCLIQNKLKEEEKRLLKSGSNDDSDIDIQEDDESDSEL
Briefly: co-IP; as the VIP assay (EGFP fusion precipitated from HEK293T lysates with GST-tagged anti-GFP nanobody beads), the beads then analysed by conventional immunoblotting with anti-mChe or anti-RFP and anti-GFP antibodies. In general terms: A western blot detects proteins with antibodies after separation by electrophoresis.

The target of experiment [2] is T2, EGFP-IFT38 CT construct (human) (UniProt Q96AJ1).
T2 sequence: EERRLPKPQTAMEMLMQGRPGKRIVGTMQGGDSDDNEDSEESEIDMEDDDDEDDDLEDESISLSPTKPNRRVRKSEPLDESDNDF
The experiment is described as above.

Experiment [3] has as its target T3, EGFP-IFT38(WT) (human) (UniProt Q96AJ1).
T3 sequence: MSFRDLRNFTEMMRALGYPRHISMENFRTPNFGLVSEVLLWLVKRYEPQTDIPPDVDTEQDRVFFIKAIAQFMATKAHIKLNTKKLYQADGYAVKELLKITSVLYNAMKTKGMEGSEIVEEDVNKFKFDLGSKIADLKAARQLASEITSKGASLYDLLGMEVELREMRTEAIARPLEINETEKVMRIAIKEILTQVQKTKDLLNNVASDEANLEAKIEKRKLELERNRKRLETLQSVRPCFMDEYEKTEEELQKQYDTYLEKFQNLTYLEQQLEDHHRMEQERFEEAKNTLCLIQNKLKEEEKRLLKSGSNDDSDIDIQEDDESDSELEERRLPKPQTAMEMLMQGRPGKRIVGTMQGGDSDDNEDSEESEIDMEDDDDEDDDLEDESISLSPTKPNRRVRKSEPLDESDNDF
The experiment is described as above.

The target of experiment [4] is T4, EGFP-IFT38(ΔC) (human) (UniProt Q96AJ1).
T4 sequence: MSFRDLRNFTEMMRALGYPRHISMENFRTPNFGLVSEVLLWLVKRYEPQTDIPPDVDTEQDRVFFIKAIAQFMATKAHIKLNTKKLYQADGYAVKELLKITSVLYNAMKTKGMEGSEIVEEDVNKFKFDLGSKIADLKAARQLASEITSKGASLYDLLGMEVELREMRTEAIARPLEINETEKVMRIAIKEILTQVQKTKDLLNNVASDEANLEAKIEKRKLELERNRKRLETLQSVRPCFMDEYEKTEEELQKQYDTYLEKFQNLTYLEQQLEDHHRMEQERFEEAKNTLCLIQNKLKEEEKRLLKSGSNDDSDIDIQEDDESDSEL
The description is as above.

In experiment [5] the target is T5, EGFP-IFT38(ΔN) (human) (UniProt Q96AJ1).
T5 sequence: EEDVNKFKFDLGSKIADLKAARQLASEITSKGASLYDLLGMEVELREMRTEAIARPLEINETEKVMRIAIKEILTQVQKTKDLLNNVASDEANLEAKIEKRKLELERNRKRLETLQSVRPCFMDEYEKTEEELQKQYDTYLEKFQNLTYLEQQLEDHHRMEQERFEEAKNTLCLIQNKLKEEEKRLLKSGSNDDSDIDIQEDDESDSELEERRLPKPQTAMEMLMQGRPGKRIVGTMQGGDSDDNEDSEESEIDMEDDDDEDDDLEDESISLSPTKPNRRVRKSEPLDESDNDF
The description is as above.

For experiment [6], the target named is T1, EGFP-IFT38 CC construct (human). Briefly: co-IP; visible immunoprecipitation (VIP) assay: lysates of co-transfected HEK293T cells (HMDEKN buffer: 10 mM HEPES pH 7.4, 5 mM MgSO4, 1 mM DTT, 0.5 mM EDTA, 25 mM KCl, 0.05% NP-40) precipitated by the EGFP fusion with GST-tagged anti-GFP nanobody on glutathione-Sepharose 4B beads; red fluorescence on the beads seen by microscopy.

The target in experiment [7] is T2, EGFP-IFT38 CT construct (human). Described as above.
Experiment [8] has as its target T3, EGFP-IFT38(WT) (human). Described as above.
For experiment [9], the target named is T4, EGFP-IFT38(ΔC) (human). The experiment is described as above.
The target of experiment [10] is T5, EGFP-IFT38(ΔN) (human). The experiment is described as above.
Experiment [11] has as its target T6, IFT25–IFT27 (UniProt Q9Y547).
T6 sequence 1: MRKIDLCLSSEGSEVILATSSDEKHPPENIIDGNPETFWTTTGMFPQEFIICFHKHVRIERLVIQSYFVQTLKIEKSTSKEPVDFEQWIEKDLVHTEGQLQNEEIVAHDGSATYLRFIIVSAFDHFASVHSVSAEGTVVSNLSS
T6 sequence 2: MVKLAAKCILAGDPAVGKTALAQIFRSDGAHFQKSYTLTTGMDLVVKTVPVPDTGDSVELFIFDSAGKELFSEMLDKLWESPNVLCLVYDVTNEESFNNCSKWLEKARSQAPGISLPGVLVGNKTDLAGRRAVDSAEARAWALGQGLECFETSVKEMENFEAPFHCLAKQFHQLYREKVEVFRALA
The experiment is described as above.

Experiment [12] concerns the target T6, IFT25–IFT27. The experiment is described as above. The source holds these as a separate data set.

Where two headings read alike, the source gives them in different places. These are yes or no findings as the source states them, for the method shown. In cells and extracts the contact can be indirect. Some entries that bind do so weakly or less than the wild type. For part of these data: Sequences can lack the tags named with a protein.

With “mChe-BBS1+BBS2+BBS9 (co-expressed) (from UniProt Q8NFJ9 1-593; Q9BXC9 1-721; Q3SYG4 1-887) (complex)”, the binding entry in experiment [1] was “no binding”; in [2], “no binding”; in the experiment with EGFP-IFT38(WT) (human) [3], “binds”; with EGFP-IFT38(ΔC) (human) [4], “no binding”; with EGFP-IFT38(ΔN) (human) [5], “binds”; in experiment [6], “no binding”. The binding entry in [7] was “no binding”; in the experiment with EGFP-IFT38(WT) (human) [8], “binds”; with EGFP-IFT38(ΔC) (human) [9] it was “no binding”; in the experiment with EGFP-IFT38(ΔN) (human) [10], “binds”; with IFT25–IFT27 [11] it was “no binding”.

As to “mChe-fused IFT52+IFT57+IFT88 (co-expressed; the other subunits of the connecting tetramer) (from UniProt Q9Y366 1-437; Q9NWB7 1-429; Q13099 1-824) (complex)”, the binding entry with EGFP-IFT38(WT) (human) [3], with EGFP-IFT38(ΔC) (human) [4], in the experiment with EGFP-IFT38(WT) (human) [8] and with EGFP-IFT38(ΔC) (human) [9] was “binds” throughout.

B1: linker subunits of the BBSome (co-expressed, Fig. S1A) (complex, UniProt Q96RK4 1-519; A8MTZ0 1-92; Q8TAM2 1-541)
chain 1: MAEERVATRTQFPVSTESQKPRQKKAPEFPILEKQNWLIHLHYIRKDYEACKAVIKEQLQETQGLCEYAIYVQALIFRLEGNIQESLELFQTCAVLSPQSADNLKQVARSLFLLGKHKAAIEVYNEAAKLNQKDWEISHNLGVCYIYLKQFNKAQDQLHNALNLNRHDLTYIMLGKIHLLEGDLDKAIEVYKKAVEFSPENTELLTTLGLLYLQLGIYQKAFEHLGNALTYDPTNYKAILAAGSMMQTHGDFDVALTKYRVVACAVPESPPLWNNIGMCFFGKKKYVAAISCLKRANYLAPFDWKILYNLGLVHLTMQQYASAFHFLSAAINFQPKMGELYMLLAVALTNLEDIENAKRAYAEAVHLDKCNPLVNLNYAVLLYNQGEKKNALAQYQEMEKKVSLLKDNSSLEFDSEMVEMAQKLGAALQVGEALVWTKPVKDPKSKHQTTSTSKPASFQQPLGSNQALGQAMSSAAAYRTLPSGAGGTSQFTKPPSLPLEPEPAVESSPTETSEQIREK
chain 2: MLKAAAKRPELSGKNTISNNSDMAEVKSMFREVLPKQGPLFVEDIMTMVLCKPKLLPLKSLTLEKLEKMHQAAQNTIRQQEMAEKDQRQITH
chain 3: MSSEMEPLLLAWSYFRRRKFQLCADLCTQMLEKSPYDQEPDPELPVHQAAWILKARALTEMVYIDEIDVDQEGIAEMMLDENAIAQVPRPGTSLKLPGTNQTGGPSQAVRPITQAGRPITGFLRPSTQSGRPGTMEQAIRTPRTAYTARPITSSSGRFVRLGTASMLTSPDGPFINLSRLNLTKYSQKPKLAKALFEYIFHHENDVKTIHLEDVVLHLGIYPFLLRNKNHIEKNALDLAALSTEHSQYKDWWWKVQIGKCYYRLGMYREAEKQFKSALKQQEMVDTFLYLAKVYVSLDQPVTALNLFKQGLDKFPGEVTLLCGIARIYEEMNNMSSAAEYYKEVLKQDNTHVEAIACIGSNHFYSDQPEIALRFYRRLLQMGIYNGQLFNNLGLCCFYAQQYDMTLTSFERALSLAENEEEAADVWYNLGHVAVGIGDTNLAHQCFRLALVNNNNHAEAYNNLAVLEMRKGHVEQARALLQTASSLAPHMYEPHFNFATISDKIGDLQRSYVAAQKSEAAFPDHVDTQHLIKQLRQHFAML
With B1, the binding result with IFT25–IFT27 [12] is “no binding”.

B2: ARL6(WT) (protein, UniProt Q9H0F7 1-186)
chain: MGLLDRLSVLLGLKKKEVHVLCLGLDNSGKTTIINKLKPSNAQSQNILPTIGFSIEKFKSSSLSFTVFDMSGQGRYRNLWEHYYKEGQAIIFVIDSSDRLRMVVAKEELDTLLNHPDIKHRRIPILFFANKMDLRDAVTSVKVSQLLCLENIKDKPWHICASDAIKGEGLQEGVDWLQDQIQTVKT
B2: the binding entry with IFT25–IFT27 [12] is recorded as “no binding”.

B3: ARL6(T31R) (protein, UniProt Q9H0F7 1-186)
chain: MGLLDRLSVLLGLKKKEVHVLCLGLDNSGKRTIINKLKPSNAQSQNILPTIGFSIEKFKSSSLSFTVFDMSGQGRYRNLWEHYYKEGQAIIFVIDSSDRLRMVVAKEELDTLLNHPDIKHRRIPILFFANKMDLRDAVTSVKVSQLLCLENIKDKPWHICASDAIKGEGLQEGVDWLQDQIQTVKT
Take B3: the binding entry with IFT25–IFT27 [12] is “no binding”.
